Results published in the supplement of paper PMC9446081.
Hit rate of the full screen: of about 39,000 compounds, about 220 (0.56%) showed activity. The list shows a part of the results.

System: Escherichia coli K-12 BW25113
Test: relative growth (OD600 normalised to plate interquartile mean) (fraction); higher = less growth inhibition, active = 0.2 or less
Details: 50 µM; LB; incubation time: overnight (16-24 h)
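Note: static incubation at 37 °C against the wild-type strain, values averaged over two biological replicates.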

SMILES | relative growth
C[C@@H]1CN([C@H](C)CO)C(=O)c2cc(NC(=O)Nc3ccc(C(F)(F)F)cc3)ccc2O[C@@H](C)CCCCO[C@H]1CN(C)C(=O)NC1CCCCC1 | inactive: 1.04
C[C@H](CO)N1C[C@H](C)[C@H](CN(C)C(=O)Nc2ccc(F)cc2)Oc2ccc(NS(=O)(=O)c3cn(C)cn3)cc2C1=O | inactive: 0.969
CCOC(=O)C[C@@H](N)c1ccccc1Cl | inactive: 1.02
C[C@@H]1CN([C@H](C)CO)C(=O)c2cccc(NC(=O)Nc3ccc(C(F)(F)F)cc3)c2O[C@@H]1CN(C)C(=O)Nc1ccc(F)cc1 | inactive: 0.991
CC1CC2C(C(O)CC3(C)C2CCC3(O)C(=O)COC(=O)CCC(=O)[O-])C2(C)C=CC(=O)C=C12.[Na+] (stereo unspecified) | inactive: 1.05
C[C@H](CO)N1C[C@H](C)[C@@H](CN(C)Cc2ccc(C(F)(F)F)cc2)Oc2ccc(NC(=O)NC3CCCCC3)cc2C1=O | inactive: 1.02
CCOC(=O)[C@H]1CCCN([C@H]2CS(=O)(=O)C[C@@H]2S(=O)(=O)c2ccccc2)C1 | inactive: 1.02
Cc1noc(C)c1NC(=O)N(C)C[C@H]1OCCCC[C@H](C)Oc2ccc(NC(=O)NC3CCCCC3)cc2C(=O)N([C@H](C)CO)C[C@@H]1C | inactive: 0.998
C[C@@H]1CN([C@@H](C)CO)C(=O)c2cc(NC(=O)Cc3cn(C)c4ccccc34)ccc2O[C@H]1CN(C)Cc1ccc(C(F)(F)F)cc1 | inactive: 1.03
O=c1c(O[C@@H]2O[C@H](CO)[C@@H](O)[C@H](O)[C@H]2O)c(-c2ccc(O)cc2)oc2cc(O)cc(O)c12 | inactive: 0.96
Cc1noc(C)c1S(=O)(=O)N(C)C[C@@H]1OCCCC[C@@H](C)Oc2ccc(NC(=O)Nc3ccc(F)cc3)cc2C(=O)N([C@H](C)CO)C[C@H]1C | inactive: 1.01
C[C@@H]1CN([C@@H](C)CO)S(=O)(=O)c2ccc(C#CCN(C)C)cc2O[C@@H]1CN(C)C(=O)CN(C)C | inactive: 1.02
C[C@@H]1CN([C@H](C)CO)C(=O)Cc2cc(NC(=O)Cc3ccccc3)ccc2O[C@@H]1CN(C)Cc1ccc(Cl)c(Cl)c1 | inactive: 1.03
CCCNC(=O)N1C[C@@H](O)COC[C@@H]2O[C@H](CC(=O)N3CCOCC3)CC[C@H]21 | inactive: 1
O=C(C[C@H]1C[C@H]2c3cc(NC(=O)Cc4ccncc4)ccc3O[C@H]2[C@H](CO)O1)NCc1ccc2c(c1)OCO2 | inactive: 1.01
O=C1NCC(=O)N2[C@@H]1C[C@@H](C(=O)O)[C@H]2c1ccc(O)cc1 | inactive: 0.983
C[C@@H]1CCCCO[C@H](CN(C)Cc2ccc(C(F)(F)F)cc2)[C@H](C)CN([C@@H](C)CO)C(=O)c2cc(NC(=O)CCCN(C)C)ccc2O1 | inactive: 1.02
CNC[C@H]1Oc2cc(C#CC(C)(C)O)ccc2S(=O)(=O)N([C@H](C)CO)C[C@H]1C | inactive: 1.01
CN1CCN(C(=O)C[C@@H]2C=C[C@@H](NC(=O)Cc3ccccn3)[C@@H](CO)O2)CC1 | inactive: 1.03
CCC(=O)Nc1ccc2c(c1)OC[C@@H](C)N(C(=O)CN1CCOCC1)C[C@H](C)[C@@H](OC)CN(C)C2=O | inactive: 1.01
COc1ccc(S(=O)(=O)N(C)C[C@@H]2Oc3ccc(NC(=O)NC(C)C)cc3C(=O)N([C@H](C)CO)C[C@H]2C)cc1 | inactive: 0.983

SMILES | relative growth
C[C@@H]1CCCCO[C@H](CN(C)C(=O)Nc2ccc(F)cc2)[C@H](C)CN([C@@H](C)CO)C(=O)c2cc(NC(=O)CCC(F)(F)F)ccc2O1 | inactive: 0.978
C[C@@H]1CCCCO[C@@H](CN(C)Cc2ccc(Cl)c(Cl)c2)[C@H](C)CN([C@@H](C)CO)C(=O)c2cc(NS(C)(=O)=O)ccc2O1 | inactive: 1.05
C[C@@H]1CN([C@H](C)CO)S(=O)(=O)c2ccc(-c3cccc(C(=O)N(C)C)c3)cc2O[C@@H]1CN(C)C(=O)Cc1ccccn1 | inactive: 0.994
C=CCC[C@H](Cc1ccc(F)cc1)C(=O)OC[C@H](Cc1c[nH]c2ccccc12)NC(=O)[C@@H](CC=C)CC(=O)N[C@H](CO)Cc1ccccc1 | inactive: 0.997
CC#CC(=O)NS(=O)(=O)c1ccccc1 | inactive: 0.981
CO[C@H]1CCN(C(=O)CN(C)C)[C@@H]2CCO[C@@H]12 | inactive: 0.982
C[C@H]1CCCCO[C@H](CN(C)C(=O)NC2CCCCC2)[C@@H](C)CN([C@@H](C)CO)C(=O)c2cc(NS(=O)(=O)c3ccccc3)ccc2O1 | inactive: 1.02
Cc1ccc(S[C@]2(C(=O)NCC(C)C)CC(=O)N(C3Cc4ccccc4C3)[C@@H]2c2ccc(CO)cc2I)cc1 | inactive: 1.01
CN(C)CC(=O)N[C@@H]1CC[C@@H](CCNC(=O)C2CCC2)O[C@@H]1CO | inactive: 1.03
C[C@@H]1CN([C@@H](C)CO)C(=O)Cc2cc(NC(=O)Nc3ccc4c(c3)OCO4)ccc2O[C@@H]1CN(C)Cc1ccc(Oc2ccccc2)cc1 | inactive: 1.02
C[C@@H]1CN([C@H](C)CO)C(=O)c2cccc(NC(=O)Nc3ccccc3)c2O[C@H]1CN(C)S(=O)(=O)c1cn(C)cn1 | inactive: 1.05
Nc1nc2ncc(=O)[nH]c2c(=O)[nH]1 | inactive: 0.858
Cc1noc(C)c1S(=O)(=O)Nc1ccc2c(c1)C(=O)N([C@H](C)CO)C[C@H](C)[C@@H](CN(C)S(=O)(=O)c1ccc(Cl)cc1)O2 | inactive: 0.938
CC(C)(O)C#Cc1ccc([C@@H]2[C@@H](CO)N3CCCCN(S(C)(=O)=O)C[C@@H]23)cc1 | inactive: 1.01
C[C@@H]1CN([C@H](C)CO)C(=O)c2cc(NC(=O)Nc3cccc4ccccc34)ccc2O[C@@H](C)CCCCO[C@@H]1CN(C)C(=O)C1CCCCC1 | inactive: 1.02
CN(C)CC#Cc1ccc([C@@H]2[C@H]3CN(C(=O)CN(C)C)CCCCN3[C@H]2CO)cc1 | inactive: 0.982
C[C@H]1CCCCO[C@@H](CN(C)C(=O)Nc2ccc(F)cc2)[C@@H](C)CN([C@@H](C)CO)C(=O)c2cc(NC(=O)Cc3ccccc3)ccc2O1 | inactive: 0.987
COc1ccc(S(=O)(=O)N(C)C[C@@H]2OCCCC[C@H](C)Oc3ccc(NS(C)(=O)=O)cc3C(=O)N([C@@H](C)CO)C[C@H]2C)cc1 | inactive: 0.921
COc1cc(C=CC(=O)N2CCCCCCC2)cc(OC)c1OC | inactive: 0.909
C[C@@H]1CN([C@@H](C)CO)C(=O)c2cc(NC(=O)Cn3cnnn3)ccc2O[C@H]1CN(C)C(=O)Nc1ccc(C(F)(F)F)cc1 | inactive: 0.967
C[C@@H]1CCCCO[C@H](CN(C)Cc2ccc(C(=O)O)cc2)[C@@H](C)CN([C@H](C)CO)C(=O)c2cc(NC(=O)CCC(F)(F)F)ccc2O1 | inactive: 1.04

SMILES | relative growth
Cc1nn(C)c(C)c1C(=O)O | inactive: 0.98
C[C@@H]1CN([C@@H](C)CO)C(=O)c2cc(NC(=O)c3ccccc3)ccc2O[C@@H](C)CCCCO[C@H]1CN(C)Cc1ccc(C(F)(F)F)cc1 | inactive: 0.908
CC(C)NC(=O)Nc1ccc2c(c1)C(=O)N([C@@H](C)CO)C[C@@H](C)[C@@H](CN(C)S(=O)(=O)c1ccccc1)O2 | inactive: 0.933
CO[C@H](CN(C)S(=O)(=O)c1ccc(Cl)cc1)[C@@H](C)CN([C@H](C)CO)S(=O)(=O)c1cccc(Cl)c1 | inactive: 1.01
OC[C@H]1O[C@H]([S][Au])[C@H](O)[C@@H](O)[C@@H]1O | inactive: 0.877
C[C@@H]1CN([C@H](C)CO)C(=O)Cc2cc(NC(=O)Nc3cccc4ccccc34)ccc2O[C@H]1CN(C)Cc1ccc(-c2ccccc2)cc1 | inactive: 1.05
COCCNC(=O)C[C@H]1CC[C@H]2[C@@H](COC[C@@H](O)CN2S(=O)(=O)c2ccccc2C)O1 | inactive: 0.998
Cc1noc(C)c1S(=O)(=O)Nc1ccc2c(c1)C(=O)N([C@@H](C)CO)C[C@@H](C)[C@@H](CN(C)Cc1ccc3c(c1)OCO3)O2 | inactive: 1.01
CN(C)CCCNC(=O)[C@@]1(C)c2ccccc2C(=O)N(Cc2cc(F)cc(C(F)(F)F)c2)[C@H]1c1ccc(CO)cc1 | inactive: 1.01
Cc1noc(C)c1NC(=O)N(C)C[C@H]1Oc2ccc(NC(=O)NC(C)C)cc2CC(=O)N([C@H](C)CO)C[C@H]1C | inactive: 1.01
NCC[C@H]1CC[C@H](NC(=O)Cc2ccncc2)[C@H](CO)O1 | inactive: 0.977
C[C@@H]1CN([C@H](C)CO)C(=O)Cc2cc(NC(=O)C3CC3)ccc2O[C@H]1CN(C)C(=O)NC1CCCCC1 | inactive: 0.97
C[C@H](CO)N1C[C@H](C)[C@@H](CN(C)C(=O)Nc2ccc3c(c2)OCO3)Oc2ncc(-c3cccnc3)cc2C1=O | inactive: 0.995
COCCn1c(N)c(N(Cc2ccccc2)C(=O)C2=COCCO2)c(=O)[nH]c1=O | inactive: 1
CS(=O)(=O)NCCc1ccccc1 | inactive: 0.959
C[C@@H]1CCCCO[C@@H](CN(C)S(=O)(=O)c2ccc(Cl)cc2)[C@@H](C)CN([C@H](C)CO)C(=O)c2cc(NC(=O)CCC(F)(F)F)ccc2O1 | inactive: 1.01
C[C@@H]1CN([C@H](C)CO)C(=O)c2cc(C#CCc3ccccc3)cnc2O[C@@H]1CN(C)CC1CCOCC1 | inactive: 1
C=C1C(=O)O[C@@H]2/C=C(\CO[C@@H]3O[C@H](CO)[C@@H](O)[C@H](O)[C@H]3OC(=O)Cc3ccc(O)cc3)CC/C=C(/C=O)C[C@H](O)[C@@H]12 | inactive: 1.01
C[C@H](CO)N1C[C@H](C)[C@H](CN(C)S(=O)(=O)c2ccccc2)Oc2ccc(NC(=O)CCN3CCOCC3)cc2C1=O | inactive: 1.01
